Measurements taken from publication PMC8948939.

Substrate: C[C@@H](c1ncncc1F)[C@](O)(Cn1cncn1)c1ccc(F)cc1F
Experiment: not read
Details: other: N-oxidation of voriconazole, rhCYP3A4, pH 7.5

B1: rhCYP3A4 (Homo sapiens) (protein)
chain: MALIPDLAMETWLLLAVSLVLLYLYGTHSHGLFKKLGIPGPTPLPFLGNILSYHKGFCMFDMECHKKYGKVWGFYDGQQPVLAITDPDMIKTVLVKECYSVFTNRRPFGPVGFMKSAISIAEDEEWKRLRSLLSPTFTSGKLKEMVPIIAQYGDVLVRNLRREAETGKPVTLKDVFGAYSMDVITSTSFGVNIDSLNNPQDPFVENTKKLLRFDFLDPFFLSITVFPFLIPILEVLNICVFPREVTNFLRKSVKRMKESRLEDTQKHRVDFLQLMIDSQNSKETESHKALSDLELVAQSIIFIFAGYETTSSVLSFIMYELATHPDVQQKLQEEIDAVLPNKAPPTYDTVLQMEYLDMVVNETLRLFPIAMRLERVCKKDVEINGMFIPKGVVVMIPSYALHRDPKYWTEPEKFLPERFSKKNKDNIDPYIYTPFGSGPRNCIGMRFALMNMKLALIRVLQNFSFKPCKETQIPLKLSLGGLLQPEKPVVLKVESRDGTVSGA
Km: 1.20 (0.830–1.58) µM
